89 compounds from paper PMC4336329 (PLoS ONE, 2015) can be followed below.

Structures are written as SMILES. Out of some 310,000 compounds screened, about 14,000 (4.5%) showed an effect of 50% or more. Effects have a minus sign here. The list shows a part of the results.
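Note: peak tail current of the secondary pulse compared with the same well before compound.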

For this experiment, the target named is human ether-à-go-go-related gene (hERG) potassium channel (human, UniProt Q12809). The experiment is described as follows: primary screen, population patch clamp on CHO cells stably expressing hERG.
Sequence of human ether-à-go-go-related gene (hERG) potassium channel (Q12809 whole entry, looked up): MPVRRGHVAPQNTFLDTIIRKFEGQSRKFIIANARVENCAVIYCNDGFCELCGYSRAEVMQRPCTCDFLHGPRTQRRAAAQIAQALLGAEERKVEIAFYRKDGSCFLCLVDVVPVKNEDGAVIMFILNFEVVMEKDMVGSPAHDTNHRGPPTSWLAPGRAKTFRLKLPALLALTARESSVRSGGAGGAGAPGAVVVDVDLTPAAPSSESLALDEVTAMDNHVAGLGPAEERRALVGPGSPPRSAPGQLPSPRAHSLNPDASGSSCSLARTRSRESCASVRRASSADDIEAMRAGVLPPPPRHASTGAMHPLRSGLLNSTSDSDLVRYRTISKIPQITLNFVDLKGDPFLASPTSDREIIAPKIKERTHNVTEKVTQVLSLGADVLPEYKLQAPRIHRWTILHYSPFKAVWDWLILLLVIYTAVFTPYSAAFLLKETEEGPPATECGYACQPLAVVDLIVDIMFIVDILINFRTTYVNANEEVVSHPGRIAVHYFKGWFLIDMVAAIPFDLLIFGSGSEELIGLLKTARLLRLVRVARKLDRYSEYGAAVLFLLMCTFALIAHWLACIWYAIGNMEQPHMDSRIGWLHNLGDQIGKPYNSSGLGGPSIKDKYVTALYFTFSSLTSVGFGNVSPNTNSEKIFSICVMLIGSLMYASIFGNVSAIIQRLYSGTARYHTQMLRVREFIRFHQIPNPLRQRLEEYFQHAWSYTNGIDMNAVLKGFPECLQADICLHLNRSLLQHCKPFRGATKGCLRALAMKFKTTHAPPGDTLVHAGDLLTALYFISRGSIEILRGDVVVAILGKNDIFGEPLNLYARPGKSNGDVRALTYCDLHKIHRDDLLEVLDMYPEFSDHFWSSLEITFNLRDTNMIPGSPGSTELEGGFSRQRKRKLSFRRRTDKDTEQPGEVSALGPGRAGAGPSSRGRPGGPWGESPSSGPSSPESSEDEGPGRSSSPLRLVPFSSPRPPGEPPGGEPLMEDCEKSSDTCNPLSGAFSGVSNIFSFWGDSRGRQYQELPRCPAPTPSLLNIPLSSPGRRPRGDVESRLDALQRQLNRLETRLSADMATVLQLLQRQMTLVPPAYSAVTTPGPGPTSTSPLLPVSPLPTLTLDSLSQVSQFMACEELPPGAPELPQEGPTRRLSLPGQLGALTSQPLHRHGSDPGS
For the compound `COc1ccc(N(C(C)C(=O)NN=C2CCCC2)S(C)(=O)=O)cc1` (centres unmarked), the “hERG current change (%, negative = inhibition) at 10uM” value came out at 21.6%.
The result for `CCCC1CCc2c(c3ccccc3[nH]c2=O)O1` (centres unmarked) reads 12.4%; that for `C/C(=N/NC(=O)CNC(=O)c1cccnc1)c1ccccc1`, -2.54%.
Regarding `CC(=O)NNc1ncnc2c1cnn2-c1ccc(C)c(Cl)c1`, the “hERG current change (%, negative = inhibition) at 10uM” value was found to be 3.22%.
For `Cc1ccc(S(=O)(=O)n2c3ccc(F)cc3c3nc(C)sc32)cc1`, the “hERG current change (%, negative = inhibition) at 10uM” value is 4.98%.
Regarding `O=C(CNC(=O)C1COc2ccccc2O1)N/N=C\c1ccc(Br)cc1` (centres unmarked), the “hERG current change (%, negative = inhibition) at 10uM” value is given as -20.1%.
For `COCCn1c(N)c(C#N)c2nc3ccccc3nc21` the value was -14%; for `O=C(CSc1nnc(Cn2c(=O)sc3ccccc32)n1-c1ccccc1)N1CCCC1`, -6.63%.
As to `Cc1ccc(C(=O)NCC(=O)N/N=C/c2cccs2)cc1C`, the “hERG current change (%, negative = inhibition) at 10uM” value is on record as 5.99%.
As for `COc1ccc(NC2CCCN(C(=O)CN3CCOC3=O)C2)cc1` (centres unmarked), the “hERG current change (%, negative = inhibition) at 10uM” value was 16.6%.
Turning to `S=C(NCCc1ccc(Cl)cc1)NC1CC1`, the “hERG current change (%, negative = inhibition) at 10uM” value is on record as 11.2%.
As for `CCN(CC(=O)Nc1c(F)cccc1F)C(=O)CNC(=O)c1cccc(C)c1`, the “hERG current change (%, negative = inhibition) at 10uM” value came out at 16.1%.
As for `O=C(CCc1nnc2ccc(N3CCCCC3)nn12)NCc1ccco1`, the “hERG current change (%, negative = inhibition) at 10uM” value is reported as 4.07%.
For `CC(C)NC(=S)N/N=C/c1ccccc1[N+](=O)[O-]` the value was 5.35%; for `COCC(=O)N(Cc1cc2cc(OC)ccc2[nH]c1=O)c1ccccc1`, 0.711%; for `CC(C)Cn1c(N)c(C(=O)CSc2n[nH]c(N)n2)c(=O)n(C)c1=O`, 9.61%.
For `CC1CC(C)(C)CC2(C1)NC(=O)N(CC(=O)Nc1cc([N+](=O)[O-])ccc1F)C2=O` (centres unmarked) the value was -23.6%; for `COCCCNC(=O)c1cc2c(=O)n3cccc(C)c3nc2s1`, 7.44%; for `c1ccc2c(-c3cncc4ccccc34)cncc2c1`, -16.8%.
In the case of `CCN(CC)C(=O)Oc1ccnc2cc(Cl)ccc12`, the “hERG current change (%, negative = inhibition) at 10uM” value was -23.3%.
Consider `COc1ccc([N+](=O)[O-])cc1NC(=O)C(C)OC(=O)C1CCCC1` (centres unmarked), for which the “hERG current change (%, negative = inhibition) at 10uM” value was -24.1%.
Regarding `Cl.OCCN1CCN(CC(O)COc2ccc3c(c2)OCO3)CC1` (centres unmarked), the “hERG current change (%, negative = inhibition) at 10uM” value is reported as 12.7%.
On to `CN(C)S(=O)(=O)c1cc(NC(=O)CN2CCN(c3ccc(O)cc3)CC2)ccc1Cl`, for which the “hERG current change (%, negative = inhibition) at 10uM” value was -6.1%.
For `Nc1nc(Nc2ccccc2)nc(NCc2ccco2)c1[N+](=O)[O-]` the value was -23.9%; for `CC(CNS(=O)(=O)c1ccccc1)Sc1ncccn1` (centres unmarked), -0.584%.
Consider `CN(Cc1ccccc1)S(=O)(=O)c1ccc2[nH]c(=O)oc2c1`, for which the “hERG current change (%, negative = inhibition) at 10uM” value is listed as 4.88%.
On to `CC(C)CN1CCC(CNC(=O)CCc2nnc(Cc3c[nH]c4ccccc34)o2)CC1`, for which the “hERG current change (%, negative = inhibition) at 10uM” value is -1.27%.
For `NC(=S)N/N=C/c1ccccc1OCCSc1ccc(Cl)cc1`, the “hERG current change (%, negative = inhibition) at 10uM” value came out at 1.23%.
Take `Cc1[nH]c2ccccc2c1/C=N\NC(=O)Cn1nnc(-c2ccccc2)n1`: the “hERG current change (%, negative = inhibition) at 10uM” value is 23%.
Take `O=C(O)C(=O)O.O=C(c1ccccc1)N1CCN(C2CC3CCC2C3)CC1` (centres unmarked): the “hERG current change (%, negative = inhibition) at 10uM” value is reported as -4.37%.
`Cc1c(C)c2cc(Cl)c(OCC(=O)N3C[C@H]4C[C@@H](C3)c3cccc(=O)n3C4)cc2oc1=O`: the “hERG current change (%, negative = inhibition) at 10uM” value is listed as 1.78%.
For `CCn1c(CSc2nc3ccccc3[nH]2)nc2cc(C(=O)O)ccc21` the value was 16.4%.
The result for `COc1ccc(NC(=O)COC(=O)c2c(C)noc2C)c(OC)c1` reads 3.73%; that for `COc1ccc(C(=O)NC(C(=O)OCC(=O)Nc2sccc2C(N)=O)C(C)C)cc1` (centres unmarked), -2.63%.
The result for `CCCCOc1ccc(C(=O)N/C(=C\c2cccc([N+](=O)[O-])c2)C(=O)OCc2ccco2)cc1` reads 12.4%; that for `CCSc1nnc(NC(=O)CSc2nc3c(c(=O)n2-c2ccccc2)SCC3)s1`, -10.6%; that for `CC1=C[C@H]2Cc3cc(C)cc(C)c3S(=O)(=O)[C@@H]2C=C1`, 0.74%.
As for `CN1CN(c2cccc([N+](=O)[O-])c2)CN=C1N[N+](=O)[O-]`, the “hERG current change (%, negative = inhibition) at 10uM” value worked out at 33%.
Consider `O=C(CC(c1ccccc1)c1ccccc1O)NCc1ccco1` (centres unmarked), for which the “hERG current change (%, negative = inhibition) at 10uM” value was -2.88%.
The result for `CN1N=C(C(=O)N2CCCC(Nc3ccc(F)c(F)c3)C2)CCC1=O` (centres unmarked) reads 10.3%; that for `Cc1cc(SCc2ccc(Br)cc2)nc(=O)[nH]1`, 16%; that for `O=C(CN1C(=O)NC2(CCc3ccccc32)C1=O)c1ccc2c(c1)OCCO2` (centres unmarked), 7.1%.
Turning to `CCCNCc1cc(Br)ccc1OCC(=O)NCCc1ccccc1`, the “hERG current change (%, negative = inhibition) at 10uM” value was -63.5%.
`CC(=O)Nc1c2c(nn1-c1ccc(C)cc1C)CSC2`: the “hERG current change (%, negative = inhibition) at 10uM” value was 10.5%.
In the case of `COc1cc(/C=N/NC(=O)c2nnn(-c3nonc3N)c2C(C)C)ccc1O`, the “hERG current change (%, negative = inhibition) at 10uM” value is recorded as -2.72%.
As for `CC(=O)Nc1cccc(C(=O)Nc2cccc3ncccc23)c1`, the “hERG current change (%, negative = inhibition) at 10uM” value is on record as 15.5%.
The result for `Cc1[nH]nc(-c2ccc(O)cc2O)c1-c1ccc(Cl)cc1` reads -4.72%; that for `O=C1CSC(c2ccccc2)N1CCc1ccccc1` (centres unmarked), 1.82%; that for `CC(=O)Nc1c(C(=O)NCc2ccccc2)nnn1Cc1ccccc1`, 4.42%.
As for `O=C(Cc1ccccc1)Nc1ccc(NC(=O)c2ccco2)nc1`, the “hERG current change (%, negative = inhibition) at 10uM” value was -5.96%.
As to `O=[N+]([O-])c1ccc(/C=C/c2ccc3ccccc3n2)cc1`, the “hERG current change (%, negative = inhibition) at 10uM” value was 5.95%.
`COC1C=CC(CNC(=O)c2cc3c(=O)n4cccc(C)c4nc3n2C)(OC)O1` (centres unmarked): the “hERG current change (%, negative = inhibition) at 10uM” value amounted to 10.1%.
On to `C=C[C@@H]1c2cc(C)ccc2N(S(=O)(=O)c2ccc(C)cc2)[C@H](c2ccccc2)C1(C#N)C#N`, for which the “hERG current change (%, negative = inhibition) at 10uM” value turned out to be 11.7%.
Take `COc1c(C)cc(C(=O)C2CCCN(C(=O)c3cccc(F)c3)C2)cc1C` (centres unmarked): the “hERG current change (%, negative = inhibition) at 10uM” value was 6.6%.
Turning to `CC(=O)N/C(=C\c1ccc(F)cc1)C(=O)N(C)C`, the “hERG current change (%, negative = inhibition) at 10uM” value came to 14.2%.
Consider `CC(C)CNC(=O)C(=O)Nc1ccc(N(C)C)cc1`, for which the “hERG current change (%, negative = inhibition) at 10uM” value was found to be 8.18%.
Regarding `CC1(C)Cc2nc(NC3CCCCC3)c(C#N)cc2CO1`, the “hERG current change (%, negative = inhibition) at 10uM” value worked out at 0.377%.
For `COc1cccc(N2CCN(C(=O)CN(C)S(=O)(=O)c3ccc4c(c3)CCC(=O)N4)CC2)c1`, the “hERG current change (%, negative = inhibition) at 10uM” value is given as -48.6%.
Consider `CCCn1nc(NC(C)=O)c2cc3cccc(C)c3nc21`, for which the “hERG current change (%, negative = inhibition) at 10uM” value came out at 23.2%.
On to `Cn1c(Cc2cccc3ccccc23)nnc1SCc1ccc([N+](=O)[O-])cc1`, for which the “hERG current change (%, negative = inhibition) at 10uM” value is -40.5%.
In the case of `Cc1cc(NC(=O)COc2ccc(Cl)cc2Cl)n(-c2ccccc2)n1`, the “hERG current change (%, negative = inhibition) at 10uM” value was -5.57%.
In the case of `O=C(c1ccccc1)c1c[nH]c2ccccc12`, the “hERG current change (%, negative = inhibition) at 10uM” value was found to be 14.6%.
As to `COc1ccc2c(c1)CCc1c-2n[nH]c1C(=O)NCCC(C)C`, the “hERG current change (%, negative = inhibition) at 10uM” value came out at 11.7%.
`O=S(=O)(CCc1nc2ccccc2s1)c1ccc2ccccc2c1`: the “hERG current change (%, negative = inhibition) at 10uM” value came out at 6.95%.
As to `Cc1cc(C)cc(NC(=O)C2C3C=CC4(O3)C2C(=O)N(CCN2CCCCC2)C4C(=O)NC2CCCCC2)c1` (centres unmarked), the “hERG current change (%, negative = inhibition) at 10uM” value is listed as -40.3%.
With `COc1ccc(NS(=O)(=O)c2cc(NC(=O)Cc3c(F)cccc3Cl)ccc2OC)cc1`, the “hERG current change (%, negative = inhibition) at 10uM” value is on record as 16%.
In the case of `CCc1nnc(NC(=O)CSc2nccn2-c2cc(C)cc(C)c2)s1`, the “hERG current change (%, negative = inhibition) at 10uM” value is listed as -6.58%.
Take `CC(NC(=O)C(=O)NN=C1CCCCCCCCCCC1)c1ccccc1` (centres unmarked): the “hERG current change (%, negative = inhibition) at 10uM” value worked out at 12.8%.
For `COC(=O)c1ccc2c(c1)NC(=O)CS2` the value was 17.5%.
For `CCn1cc([N+](=O)[O-])c(C(=O)Nc2ccc(Cn3nc(C)cc3C)cc2)n1` the value was -7.93%; for `CCOc1ccc(-n2c(SCC(=O)c3c(N)n(C)c(=O)n(C)c3=O)nnc2-c2cccnc2)cc1`, 3.28%.
On to `COc1ccccc1Nc1nc(-c2sc(NC(=O)c3ccc([N+](=O)[O-])cc3)nc2C)cs1`, for which the “hERG current change (%, negative = inhibition) at 10uM” value was -1.25%.
With `CC1CCN(CCCNC(=O)COc2cc(=O)n(C)c3ccccc23)CC1`, the “hERG current change (%, negative = inhibition) at 10uM” value amounted to 8.58%.
Take `CCSC1=C(C#N)C2(CCCC2)C(C#N)=C(N)N1`: the “hERG current change (%, negative = inhibition) at 10uM” value is recorded as -22.4%.
Take `COc1ccc(C(=O)OCCN2CCOCC2)cc1OC.Cl`: the “hERG current change (%, negative = inhibition) at 10uM” value is 7.96%.
For `Cn1ncc2c(NCc3ccccc3)ncnc21`, the “hERG current change (%, negative = inhibition) at 10uM” value is recorded as -11%.
`Cc1c(C(=O)N/N=C/c2ccc(O)c(Br)c2)sc(N)c1C#N`: the “hERG current change (%, negative = inhibition) at 10uM” value was determined as 2.49%.
For `Cn1cc(Cl)c(C(=O)NC2CCCC2)n1` the value was 4.09%; for `CCC(=O)Nc1ccc(N2CCN(S(C)(=O)=O)CC2)cc1`, 26.4%; for `Cc1ccc(OCCC(=O)OCC(=O)NC2CCS(=O)(=O)C2)cc1` (centres unmarked), -3.57%.
For the compound `CC(=O)Nc1ccc(-c2csc(NC(=O)C3CC(=O)N(c4ccc5c(c4)OCCO5)C3)n2)cc1` (centres unmarked), the “hERG current change (%, negative = inhibition) at 10uM” value is recorded as 15.7%.
As to `O=C1ON=C(c2ccc([N+](=O)[O-])cc2)/C1=C/c1ccccc1O`, the “hERG current change (%, negative = inhibition) at 10uM” value is recorded as 16.5%.
Consider `CCOC(=O)c1c(NC(=O)c2cccc(N3C(=O)CCC3=O)c2)sc(C)c1C`, for which the “hERG current change (%, negative = inhibition) at 10uM” value is recorded as 5.4%.
Take `Cc1c(C(=O)O)cccc1-c1ccc(/C=N/n2cnnc2)o1`: the “hERG current change (%, negative = inhibition) at 10uM” value amounted to 20.7%.
Take `CSc1oc(-c2ccccc2)nc1S(=O)(=O)c1ccc(F)cc1`: the “hERG current change (%, negative = inhibition) at 10uM” value is -6.65%.
For `CCN1/C(=C/c2ccc3cccc(C)c3[n+]2CC)Sc2ccccc21.[I-]` the value was -75%.
As for `O=c1/c(=C/c2ccccc2)sc2nnc(-c3cccs3)n12`, the “hERG current change (%, negative = inhibition) at 10uM” value is on record as 5.5%.
Consider `O=C(Nc1cccnc1Cl)c1cc([N+](=O)[O-])ccc1Cl`, for which the “hERG current change (%, negative = inhibition) at 10uM” value was 9.09%.
Turning to `Cc1ccc(C(=O)NC2CC(C)(C)NC(C)(C)C2)cc1Cl`, the “hERG current change (%, negative = inhibition) at 10uM” value amounted to 10.9%.
